First the molecules themselves.
B1: chr3:15690066:15690176:-|CDS|ENSG00000206560|unk|total|mutant (ssRNA)
RNA: GGGAGUUCUACAGUCCGACGAUCAGUGUUGGUACAGUCUUUGUCCGAUCUUGAUGUCAGAAACCGCCGUGGAAGAACACCCCCCGAUCUUGCAGCUUUUAAGGGCCAUGUUGAAUGUGUGGAUGUACUCAUUAAUCAGGGAGCCAACAGAGGAUUGAGCAUCA
B2: ENSG00000070961:be:win_5101|3pUTR|ENSG00000070961|bound_else_gene|NA|bound_elsewhere_windowed (ssRNA)
RNA: GGGAGUUCUACAGUCCGACGAUCAUGACCACCAUUGUCUUUGAUACAUUUAUUUUAAUUCUUAAGUGGCCAAAUAACAGAUUAGGUAAAAUGAGAUUACAUGAAAAGGUUCUAAAAUGAUAUAUUUAGAUGCAAUAAUUAACCCAACAGAGGAUUGAGCAUCA
B3: chr3:36528868:36528981:+|CDS|ENSG00000144681|unk|FALSE|unique (ssRNA)
RNA: GGGAGUUCUACAGUCCGACGAUCAGAAUUGGCUUCUUUCCAGCCAACUUUGUUCAGAGACUACAACAAAAUGAGAAGAUUUUUAGAUGUGUUAGAACCUUCAUUGGGUGUAAGGAACAGGGGCAGAUAACACUGAAAGAGAAUCAACAGAGGAUUGAGCAUCA
B4: chr1:56708525:56708626:+|3pUTR|ENSG00000162409|unk|total|mutant (ssRNA)
RNA: GGGAGUUCUACAGUCCGACGAUCACCUUUCUCAAAUUCUUUUUGCCUCUAUUUAUUUUUGCAUUUCACCAACAGUGAUAAAACCGUUAAAUGAAACAAAGCAAAGUAUCAACAGUCCCUUAAAUGAGAAUCCUUAUCUUUGAUCAACAGAGGAUUGAGCAUCA
B5: chr16:87831719:87831834:-|3pUTR|ENSG00000103257|msi1_unk|total|mutant (ssRNA)
RNA: GGGAGUUCUACAGUCCGACGAUCCCUGCGUUUGGAGGCCCCUGGGCUCUCACCCAGUCCCCACCCGCCUGCAGAGAGGGAACCCGGGCACCCCUUGUUUCUGUUGUUCCCGUGAAUUUUUUUCGCUAUGGGAGGCAGCCGAGGCAACAGAGGAUUGAGCAUCA
B6: chr14:106421710:106422018:-|CDS|ENSG00000211959|control|control|control (ssRNA)
RNA: GGGAGUUCUACAGUCCGACGAUCCUAUUAUAGUGGGAGCACCUACUACAACCCGUCCCUCAAGAGUCGAGUCACCAUAUCCGUAGACACGUCCAAGAACCAGUUCUCCCUGAAGCUGAGCUCUGUGACCGCCGCAGACACGGCCAACAGAGGAUUGAGCAUCA
B7: chr5:136977529:136977630:-|3pUTR|ENSG00000152377|msi1|total|mutant (ssRNA)
RNA: GGGAGUUCUACAGUCCGACGAUCACAAGCCAUCUCUUUCAUUUCUGCUUGAAGCCCCUUGGCUGCAGCAAUCCUGUCUGCCACCGGUUUCUUCCUUCCUUACCUACUCAAGGGCUUUUUCUAAGGCAUGCACACAUAUCUCCUCAACAGAGGAUUGAGCAUCA
B8: chr15:30360565:30362292:-|three_prime_utr|ENSG00000166664|control|control|control (ssRNA)
RNA: GGGAGUUCUACAGUCCGACGAUCACAACUCCAGUGUUCCCUUCUGGCUGUCAGUCGUGUUGCUUACGGUUUCUUUGUUACUUUAGGUAGUAGAAUCUCAGCACUUUGUUUCAUAUUCUCAGAUGGGCUGAUAGAUAUCCUUGGCAACAGAGGAUUGAGCAUCA
B9: chr10:84150713:84150851:+|CDS|ENSG00000165678|unk|FALSE|unique (ssRNA)
RNA: GGGAGUUCUACAGUCCGACGAUCUCUUCCACCUACCACCGUGGCUGGUGCCACUCUUUACUCAGUGGCAAUGUACGGUGGAUUAGUUCUUUUCAGCAUGUUCCUUCUGUAUGAUACCCAGAAAGUAAUCAAGCGUGCAGAAGUCAACAGAGGAUUGAGCAUCA
B10: chr22:42060953:42061055:-|CDS|ENSG00000198951|unk|total|mutant (ssRNA)
RNA: GGGAGUUCUACAGUCCGACGAUCCCAGGAAAAAUCUCUCAUCGAAGUGUACAUGCGGCCUCUGUCCAACAAGGCCCGCGCCUCCGUCUUCUUCAGCUGCAGGACCGAUAUGCCUUAUCGCUACCACUCCUCCCUUGGCCAGCUCAACAGAGGAUUGAGCAUCA
B11: chr1:109310645:109310811:-|3pUTR|ENSG00000134243|msi1|total|mutant (ssRNA)
RNA: GGGAGUUCUACAGUCCGACGAUCAGGGUAACGGGGCUGGCCUGGCAUCCGUCAUUAUUCCGUUUCCAGGCCAACCAUCCAGACCGAGAUUCCCUCUUUCCUUUGAGCAGUGCUCUCAAGAGCUCCGUGCCUGUCCACAAUGACCAACAGAGGAUUGAGCAUCA
B12: chr19:51078814:51078951:-|CDS|ENSG00000129437|control|control|control (ssRNA)
RNA: GGGAGUUCUACAGUCCGACGAUCUCUCUGCAAUGCGUGAACAUCAACAUCUCCCCGGAUGAGGUGUGCCAGAAGGCCUAUCCUAGAACCAUCACGCCUGGCAUGGUCUGUGCAGGAGUUCCCCAGGGCGGGAAGGACUCUUGUCAACAGAGGAUUGAGCAUCA
B13: chr17:76291014:76294021:-|CDS|ENSG00000129646|control|control|control (ssRNA)
RNA: GGGAGUUCUACAGUCCGACGAUCAGAAUGAGUUCUAGUUUCCCCACGGCAGUGGAGACAUUUCAUCUGAUGGGAGAGCUCAGUAGCCUCUAUGUGGGGCUAAAGGAGAGUAUGAAGGAUCUGGAUGAGGAGCAGGCCGGCCAACAACAGAGGAUUGAGCAUCA
B14: chr4:42087128:42087229:+|3pUTR|ENSG00000014824|msi1|FALSE|unique (ssRNA)
RNA: GGGAGUUCUACAGUCCGACGAUCAUUUUGUAUAAUAUAGUUCAUACUGUGUCUGUGAGUUUCUUCAGUUACAAAUGGGCAUUUAGUAUAGUUAUAUUGACUAUAACAUGUAAGUAAAUAGCUUUCUACUGACCCUAAGUUAUCCAACAGAGGAUUGAGCAUCA
B15: chr9:83661418:83661519:-|3pUTR|ENSG00000135018|msi1|total|mutant (ssRNA)
RNA: GGGAGUUCUACAGUCCGACGAUCUACCGUUGGGUGACCAGAUUUUGUCCUGCAUCUGUCCAGUUUAUUUGCUUUUUAAACAUCCGCCUAUGGCCGUAAUUUAUGCCGAAUAAAAGCAUUAAAAAGAAGCAAAUCAUUUGCACUCAACAGAGGAUUGAGCAUCA
B16: chr16:3436009:3436110:-|3pUTR|ENSG00000167981|unk|total|mutant (ssRNA)
RNA: GGGAGUUCUACAGUCCGACGAUCAUUAAAAUGAAGGCUCUUGCUAAAGUUAUUUUAAUUUUGUUUACGCCGUUUCUGACUUUCCGAAGGAGGAGAAUUUAUUUAUAUUUUGCCAGUUCUGCAGACAUAUCCCGGAAAGUAAAUCAACAGAGGAUUGAGCAUCA
B17: chr4:138171744:138171845:-|3pUTR|ENSG00000151012|msi1|total|mutant (ssRNA)
RNA: GGGAGUUCUACAGUCCGACGAUCAGGAGUCAGUUAUUUUUAUUCAUAUAUUUCCGCAUAUUCGAACUAAUUUCUAAGAAAUUCCGUUAUAACUCUAUGCCGUUACCGAAAGUGAAUAUGCAGUUAUUCUAUGAGUCGCACAAUCAACAGAGGAUUGAGCAUCA
B18: ENSG00000106683:stop:overlap|stop_codon|ENSG00000106683|stop_codon|NA|stop_codon (ssRNA)
RNA: GGGAGUUCUACAGUCCGACGAUCGCUCUGCCCGGCAGAAACCUGUCUUCGCAAGGACCUGGGUCGCUCUGAGUCCCUCCGCGUAGUCUGCCGGCCACACCGCAUCUUCCGGCCGUCGGACCUCAUCCACGGGGAGGUGCUGGGCAACAGAGGAUUGAGCAUCA
B19: ENSG00000096717:stop:overlap|stop_codon|ENSG00000096717|stop_codon|NA|stop_codon (ssRNA)
RNA: GGGAGUUCUACAGUCCGACGAUCAUGAAGCUAUAUCUGUGAAACAGGAAGUAACAGACAUGAACUAUCCAUCAAACAAAUCAUAGUGUAAUAAUUGUGCAGGUACAGGAAUUGUUCCACCAGCAUUAGGAACUUUAGCAUGUCCAACAGAGGAUUGAGCAUCA
B20: chr3:149172415:149172516:+|3pUTR|ENSG00000163755|unk|FALSE|unique (ssRNA)
RNA: GGGAGUUCUACAGUCCGACGAUCUUACCGUGUAGUGGUAACUAUUCACUUCUUAAUUUAUGACCUCAAUCAAUUUAAUUGUCUAGAAUGUAAAAAGUCUUUAAGACAUAAGAAUUCCUCAAAGAAGCCAUACAUUUUUUAAGGCAACAGAGGAUUGAGCAUCA
B21: chr1:213005240:213005351:-|CDS|ENSG00000174606|unk|FALSE|unique (ssRNA)
RNA: GGGAGUUCUACAGUCCGACGAUCGAACCCAGUGGAAUUCUUCCGCCCUGAUAUUUCUCUGUUGGACAGAGACAAUGUUGGAUUAGUUUUACUCUUACAGCCCAAAAUUCCAUAUGCUGCCUGCCCUGCAAUCUGCGUAGCAAACAACAGAGGAUUGAGCAUCA
B22: chr8:12150890:12151093:-|CDS|ENSG00000254866|control|control|control (ssRNA)
RNA: GGGAGUUCUACAGUCCGACGAUCGAUGUCUGCAAAGUAGUAGAAGAUCAAAUUGGUGCCUGCCGAAGAAGGAUGAAGUGUUGUAGAGCAUGGUGGAUUUUAAUGCCAAUUCCAACACCACUUAUCAUGUCAGAUUAUCAAGAACAACAGAGGAUUGAGCAUCA

From publication PMC12136788 come the findings set out here.

The list shows a part of the results.

The target in the assay is MSI1 full-length (mouse, UniProt Q61474 1-362). Nature of the assay: nsRBNS (natural sequence RNA bind-n-seq); RBNS binding buffer (assumed for nsRBNS): 25 mM Tris pH 7.5, 150 mM KCl, 3 mM MgCl2, 0.01% Triton X-100, 500 ug/ml BSA, 20 U/ml SUPERase-In, 4 C; UNK is unkempt and MSI1 is Musashi-1; names of the RNAs are library labels; protein concentration not given here; high values mean tight binding.
Sequence of UniProt Q61474 (Q61474 whole entry): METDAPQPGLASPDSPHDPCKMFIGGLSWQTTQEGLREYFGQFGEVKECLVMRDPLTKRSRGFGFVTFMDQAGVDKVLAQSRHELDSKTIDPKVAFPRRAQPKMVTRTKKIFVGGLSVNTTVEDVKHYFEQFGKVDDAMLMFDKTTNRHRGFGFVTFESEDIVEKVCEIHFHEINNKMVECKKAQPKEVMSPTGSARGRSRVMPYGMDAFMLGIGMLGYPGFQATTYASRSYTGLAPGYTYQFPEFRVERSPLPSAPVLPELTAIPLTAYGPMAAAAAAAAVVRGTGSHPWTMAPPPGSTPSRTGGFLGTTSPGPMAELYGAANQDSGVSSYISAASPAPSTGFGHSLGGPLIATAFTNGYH
With B1, the binding signal is 0.359 enrichment R.

B2 showed a binding signal of 9.91 enrichment R.

For B3, the binding signal worked out at 0.844 enrichment R.

With B4, the binding signal worked out at 0.454 enrichment R.

As to B5, the binding signal amounted to 0.373 enrichment R.

Regarding B6, the binding signal is 0.635 enrichment R.

The molecule B7 returned a binding signal of 0.518 enrichment R.

Molecule B8 returned a binding signal of 1.43 enrichment R.

B9 yielded a binding signal of 0.465 enrichment R.

As to B10, the binding signal stood at 0.589 enrichment R.

Molecule B11 gave a binding signal of 0.465 enrichment R.

In turn, B12 came in with a binding signal of 0.491 enrichment R.

For B13, the binding signal was 0.533 enrichment R.

The molecule B14 displayed a binding signal of 2.94 enrichment R.

As for B15, the binding signal was found to be 0.203 enrichment R.

Molecule B16 came in with a binding signal of 0.68 enrichment R.

The molecule B17 returned a binding signal of 0.833 enrichment R.

Molecule B18 came in with a binding signal of 0.548 enrichment R.

B19 came in with a binding signal of 0.449 enrichment R.

With B20, the binding signal was 5.75 enrichment R.

Molecule B21 showed a binding signal of 0.68 enrichment R.

B22 returned a binding signal of 0.515 enrichment R.
